{
  "source": "the supplement of paper PMC12217912",
  "parents": {"B1": {"name": "TEV protease; numbered along this chain (parent)", "chain": "MGESLFKGPRDYNPISSSICHLTNESDGHTTSLYGIGFGPFIITNKHLFRRNNGTLVVQSLHGVFKVKDTTTLQQHLVDGRDMIIIRMPKDFPPFPQKLKFREPQREERICLVTTNFQTKSMSSMVSDTSCTFPSGDGIFWKHWIQTKDGQCGSPLVSTRDGFIVGIHSASNFTNTNNYFTSVPKNFMELLTNQEAQQWVSGWRLNADSVLWGGHKVFMVKPEEPFQPVKEATQL"}},
  "note": "The other results are listed elsewhere or left out. Sequences were assembled here from the parent chain. Values near 0.05 are background.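 Also: Bxb1 expression induced with 0.2% (w/v) L-rhamnose at OD600 near 0.5, cultures sampled hourly, flipped fraction per protease–substrate barcode pair counted by paired-end Illumina sequencing.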",
  "data": [
    {"variants_of": "B1", "assay": "raw area under fraction-flipped curve 0-4 h after induction (AUC4h, not background-subtracted), DNA-recorder readout of cleavage of the substrate (dimensionless); higher = more cleavage of the substrate by the protease variant", "conditions": "temperature: 34 °C; time window: 0-4 h after rhamnose induction", "values": [
      {"variant": "MGESLFKGPRDYNPISSSICHLTNESDGHTTSLYGIGFGPFIITNKHLFRRNNGTLVVQSLHGVFKVKDTTTLQQHLVDGRDMIIIRMPKDFPPFPQKLKFREPQREERICLVTTNFQTKSMSSMVSDTSCTFPSGDGIFWKHWIQTKDGQCGSPLVSTRDGFIVGIHSASNFTNTNNYFTSVPKNFMELLTNQEAQQWVSGWRLNADSVLWGGHKVFMVKPEEPFQPVKEVTQL", "note": "[A232V]", "area with substrate SNLYFQS": 0.0792, "area with substrate TNLYFQS": 0.0731, "area with substrate WNLYFQS": 0.0566},
      {"variant": "MGESLFKGPRDYNPISSSICHLTNESDGHTTSLYGIGFGPFIITNKHLFRRNNGTLVVQSLHGVFKVKDTTTLQQHLVDGRDMIIIRMPKDFPPFPQKLKFREPQREERICLVTTNFQTKSMSSMVSDTSCTFPSGDGIFWKHWIQTKDGQCGSPLVSTRDGFIVGIHSASNFTNTNNYFTSVPKNFMELLWNQEAQQWVSGWRLNADSVLWGGHKVFMVKPEEPFQPVKEATQL", "note": "[T192W]", "area with substrate SNLYFQS": 0.0636},
      {"variant": "MGESLFKDPRDYNPISSSICHLTNESDGHTTSLYGIGFGPFIITNKHLFRRNNGTLVVQSLHGVFKVKDTTTLQQHLVDGRDMIIIRMPKDFPPFPQKLKFREPQREERICLVTTNFQTKSMSSMVSDTSCTFPSGDGIFWKHWIQTKDGQCGSPLVSTRDGFIVGIHSASNFTNTNNYFTSVPKNFMELLTNQEAQQWVSGWRLNADSVLWGGHKVFMVKPEEPFQPVKEATQL", "note": "[G8D]", "area with substrate TNLYFQS": 0.0816},
      {"variant": "MGESLFKGPRDYNPISSSICHLTNESDGHTTSLYGIGFGPFIITNKHLFRRNNGTLVVQSLHGVFKVKDTTTLQQHLVDGRDMIIIRMPKDFPPFPQKLKFREPQREERICLVTTNFQTKSMSSMVSDTSCTFPSGDGIFWKHWIQTKDGQCGSPLVSTRDGFIVGIHSASNFTNTNNYFTSVPKNFMELLTNQEAQQWLSGWRLNADSVLWGGHKVFMVKPEEPFQPVKEATQL", "note": "[V200L]", "area with substrate INLYFQS": 0.0716, "area with substrate LNLYFQS": 0.0839, "area with substrate PNLYFQS": 0.0406, "area with substrate SNLYFQS": 0.0569, "area with substrate WNLYFQS": 0.0709, "area with substrate YNLYFQS": 0.0297},
      {"variant": "MGESLFKGPRDYNPISSSICHLTNESDGHTTSLYGIGFGPFIITNKHLFRRNNGTLVVQSLHGVFKVKDTTTLQQHLVDGRDMIIIRMPKDFPPFPQKLKFREPQREERICLVTTNFQTKSMSSMVSDTSCTFPSGDGIFWKHWIQTKDGQCGSPLVSTRDGFIVGIHSASNFTNTNNYFTSVPKNFMELLTNQEAQQWISGWRLNADSVLWGGHKVFMVKPEEPFQPVKEATQL", "note": "[V200I]", "area with substrate PNLYFQS": 0.0636, "area with substrate YNLYFQS": 0.0643},
      {"variant": "MGESLFKGPRDYNPISSSICHLTNESDGHTTSLYGIGFGPFIITNKHLFRRNNGTLVVQSLHGVFKVKDTTTLQQHLVDGRDMIIIRMPKDFPPFPQKLKFREPQREERICLVTTNFQTKSMSSMVSDTSCTFPSGDGIFWKHWIQTKDGQCGSPLVSTRDGFIVGIHSASNFTNTNNYFTSVPKNFMELLTNQEAQQWASGWRLNADSVLWGGHKVFMVKPEEPFQPVKEATQL", "note": "[V200A]", "area with substrate HNLYFQS": 0.0377, "area with substrate INLYFQS": 0.0569, "area with substrate PNLYFQS": 0.0671, "area with substrate WNLYFQS": 0.0629},
      {"variant": "MGESLFKGPRDYNPISSSICHLTNESDGHTTSLYGIGFGPFIITNKHLFRRNNGTLVVQSLHGVFKVKDTTTLQQHLVDGRDMIIIRMPKDFPPFPQKLKFREPQREERICLVTTNFQTKSMSSMVSDTSCTFPSGDGIFWKHWIQTKDGQCGSPLVSTRDGFIVGIHSASNFTNTNNYFTSVPKNFMELLTNQEAQQWVSGWRLNADSVLWGGHDVFMVKPEEPFQPVKEATQL", "note": "[K216D]", "area with substrate PNLYFQS": 0.0819, "area with substrate WNLYFQS": 0.0618},
      {"variant": "MGESLFKGPRDYNPISSSICHLTNESDGHTTSLYGIGFGPFIITNKHLFRRNNGTLVVQSLHGVFKVKDTTTLQQHLVDGRDMIIIRHPKDFPPFPQKLKFREPQREERICLVTTNFQTKSMSSMVSDTSCTFPSGDGIFWKHWIQTKDGQCGSPLVSTRDGFIVGIHSASNFTNTNNYFTSVPKNFMELLTNQEAQQWVSGWRLNADSVLWGGHKVFMVKPEEPFQPVKEATQL", "note": "[M88H]", "area with substrate INLYFQS": 0.0387, "area with substrate LNLYFQS": 0.0786, "area with substrate NNLYFQS": 0.027, "area with substrate RNLYFQS": 0.0494},
      {"variant": "MGESLFKGPRDYNPISSSICHLTNESDGHTTSLYGIGFGPFIITNKHLFRRNNGTLVVQSLHGVFKVKDTTTLQQHLVDGRDMIIIRCPKDFPPFPQKLKFREPQREERICLVTTNFQTKSMSSMVSDTSCTFPSGDGIFWKHWIQTKDGQCGSPLVSTRDGFIVGIHSASNFTNTNNYFTSVPKNFMELLTNQEAQQWVSGWRLNADSVLWGGHKVFMVKPEEPFQPVKEATQL", "note": "[M88C]", "area with substrate KNLYFQS": 0.065, "area with substrate LNLYFQS": 0.0602, "area with substrate SNLYFQS": 0.0706}
    ]}
  ]
}
